For eight compounds, cell count results are on record in the supplement of paper PMC4604168 (melanoma cell lines).

The list shows a part of the results. Single values are uncertain, as repeats are few or missing.

Common to all, as to assay: cell count relative to DMSO control; melanoma cells; higher = more viable cells
What all share (conditions): library dose: low library concentration; 72 h

Test [1] relates to MZ2-MEL.
The subject of test [2] is MeWo.
The test system of test [3] is RPMI7951.
Test [4] has as its system RVH-421.
For test [5], the system named is SkMel28.
In test [6] the test system is SkMel2.
Test [7] relates to SkMel30.
Test [8] concerns SkMel5.
For test [9], the system named is UACC257.
In test [10] the test system is UACC62.
Test [11] has as its system WM115.
Test [12] has as its system WM1716.
Test [13] has as its system WM1745.
The test system of test [14] is WM3526.
The subject of test [15] is WM3619.
The subject of test [16] is WM451Lu.
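Note: cell number obtained by counting DAPI-stained nuclei in high-throughput microscope images with image analysis software, screen run in 1,536-well plates.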

For the compound `COc1cc(Nc2ncc(F)c(Nc3ccc4c(n3)NC(=O)C(C)(C)O4)n2)cc(OC)c1OC` [Tamatinib] + CN(C)S(=O)(=O)c1ccc2c(c1)/C(=C/c1cc3c([nH]1)CCCC3)C(=O)N2 [SU6656] (first compound 0.4 µM, partner dose 0.4 µM), the cell count in test [1] worked out at 86.1%; in test [2] it was 77.3%; in [3], 84.5%; in [4], 70.4%; in test [5], 82.5%; in [6], 90.5%. Also, the cell count is 97.1% in [7]; 73% in test [8]; 60.5% in [9]; 56.6% in [10]; 61.6% in test [11]; 85.5% in test [12]. For the same compound, the cell count in test [13] worked out at 73.1%; in test [14] it was 82.6%; in [15], 113%; in test [16], 105%.
With `O=c1[nH]nc(Sc2ncc([N+](=O)[O-])s2)n1-c1ccc2c(c1)OCCO2` + CC1(C)NC(=O)N(c2ccc([N+](=O)[O-])c(C(F)(F)F)c2)C1=O [nilutamide] (first compound 0.2 µM, partner dose 1 µM), the cell count in test [1] stood at 108%; in test [2] it was 99.4%; in test [3], 108%; in test [4] it was 89.4%; in test [5], 120%; in test [6], 106%. Further, the cell count in test [7] was 110%; in test [8], 98.9%; in test [9], 120%; in test [10], 94%; in [11], 106%; in test [12], 114%. Also, the cell count was determined as 96% in [13], 122% in test [14], 139% in test [15] and 116% in [16].
`COc1cc(Nc2ncc(F)c(Nc3ccc4c(n3)NC(=O)C(C)(C)O4)n2)cc(OC)c1OC` [Tamatinib] + C[C@@H]1CCN(C(=O)CC#N)C[C@@H]1N(C)c1ncnc2[nH]ccc12 [CP690550] (first compound 0.4 µM, partner dose 1 µM): the cell count in test [1] is 95.3%; in [2], 83.7%; in [3], 88.7%; in [4], 98.1%; in [5], 71.5%; in [6] it was 92.6%. For the same compound, the cell count was 87.2% in test [7]; 94% in test [8]; 83.7% in [9]; 78.6% in test [10]; 73.6% in test [11]; 90.8% in test [12]. Besides, the cell count worked out at 72.6% in test [13], 85.5% in [14], 101% in test [15] and 106% in [16].
With `CC1(C)NC(=O)N(c2ccc([N+](=O)[O-])c(C(F)(F)F)c2)C1=O` [nilutamide] + O=C(Nc1cccc(Cl)c1)Nc1ncc(CCNc2ncnc3ccsc23)s1 [SNS314] (first compound 1 µM, partner dose 0.0008 µM), the cell count in test [1] amounted to 104%; in test [2], 95.6%; in test [3], 119%; in [4] it was 81.9%; in [5] it was 103%; in [6], 93.3%. Besides, the cell count worked out at 125% in [7]; 97.9% in test [8]; 78.3% in test [9]; 97.8% in test [10]; 77.7% in [11]; 65.9% in test [12]. The cell count in [13] came to 86.6%; in [14], 112%; in test [15] it was 159%; in [16], 111%.
Consider `O=C(Nc1cccc(Cl)c1)Nc1ncc(CCNc2ncnc3ccsc23)s1` + Cn1cncc1[C@@](N)(c1ccc(Cl)cc1)c1ccc2c(c1)c(-c1cccc(Cl)c1)cc(=O)n2C [tipifarnib] (first compound 0.0008 µM, partner dose 0.01 µM), for which the cell count in test [1] came out at 103%; in [2] it was 102%; in test [3] it was 85.8%; in test [4], 92.3%; in test [5], 83.8%; in test [6], 80.9%. Besides, the cell count worked out at 105% in test [7]; 109% in test [8]; 69.9% in test [9]; 66.5% in test [10]; 60.9% in test [11]; 89.6% in test [12]. The cell count in test [13] was found to be 78.6%; in [14] it was 79%; in test [15] it was 93%; in test [16], 78%.
As for `O=C(O)c1ccc(-c2c[nH]c3ncc(-c4ccccc4)cc23)cc1C1CCCC1` + NCC(=O)Nc1ccc(-n2nc(C(F)(F)F)cc2-c2ccc3c(ccc4ccccc43)c2)cc1 [OSU03012] (first compound 0.16 µM, partner dose 1 µM), the cell count turned out to be 101% in test [1]; 65.6% in [2]; 96% in test [3]; 86.4% in [4]; 77.6% in test [5]; 88.4% in test [6]. The cell count in test [7] was 55.5%; in test [8], 102%; in test [9], 88.1%; in [10], 93.2%; in test [11] it was 83.8%; in [12], 108%. The cell count in test [13] was found to be 114%; in test [14], 45%; in test [15], 79.1%; in test [16] it was 61.5%.
With `COc1cc(Nc2ncc(F)c(Nc3ccc4c(n3)NC(=O)C(C)(C)O4)n2)cc(OC)c1OC` [Tamatinib] + NC(=O)Nc1cc(-c2cccc(F)c2)sc1C(=O)N[C@H]1CCCNC1 [AZD7762] (first compound 0.4 µM, partner dose 0.02 µM), the cell count in test [1] is 108%; in [2] it was 91%; in [3], 78.3%; in test [4], 116%; in test [5] it was 89.5%; in [6], 97.5%. For the same compound, the cell count in test [7] turned out to be 76.9%; in [8], 97.9%; in test [9], 106%; in test [10], 90.8%; in [11], 67.1%; in test [12], 86.3%. The cell count amounted to 60.5% in test [13], 62.2% in test [14], 62.5% in test [15] and 82.8% in test [16].
As for `C[C@@H]1CCN(C(=O)CC#N)C[C@@H]1N(C)c1ncnc2[nH]ccc12` + Cn1cncc1[C@@](N)(c1ccc(Cl)cc1)c1ccc2c(c1)c(-c1cccc(Cl)c1)cc(=O)n2C [tipifarnib] (first compound 1 µM, partner dose 0.01 µM), the cell count in test [1] was 103%; in test [2], 96.9%; in test [3] it was 97.5%; in test [4] it was 99.2%; in test [5], 106%; in test [6] it was 86.4%. Also, the cell count was found to be 108% in test [7]; 97.1% in test [8]; 76.9% in [9]; 67.4% in test [10]; 103% in [11]; 85.8% in test [12]. In addition, the cell count in test [13] is 88.6%; in test [14], 103%; in test [15] it was 75.8%; in test [16], 82.7%.
